The supplement of paper PMC4166925
± gives the standard deviation of the averaged measurements. In all, about 33,000 sequences were measured (“E-score (dimensionless, -0.5 to 0.5)”: median about -0.049, highest 2% from about 0.37 on). The list shows a part of the results.

tested on: T1, PmTbr T-box DNA-binding domain (GST fusion); experiment: PBM E-score of 8-mer (E-score (dimensionless, -0.5 to 0.5)); Tbr is Tbrain of the sea star Patiria miniata (Pm) or the sea urchin Strongylocentrotus purpuratus (Sp); higher = stronger binding preference; most listed sequences are background and not binding sites; conditions: the construct has about 5 more residues each side
T1 sequence: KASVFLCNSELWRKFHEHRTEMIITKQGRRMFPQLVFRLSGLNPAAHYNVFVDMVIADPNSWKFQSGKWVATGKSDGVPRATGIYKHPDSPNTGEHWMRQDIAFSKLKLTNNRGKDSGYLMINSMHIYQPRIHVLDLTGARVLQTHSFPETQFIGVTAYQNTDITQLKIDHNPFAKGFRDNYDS
Summary of the method: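 Using the Universal PBM Analysis Suite, every ungapped 8-mer received an enrichment E-score averaged over duplicate arrays. Probe intensities came from double-stranded Universal Agilent oligonucleotide arrays incubated with 200 nM GST-fused Tbr T-box DNA-binding domain in PBS (pH 7.5). That protein was expressed in BL21 E. coli at 20 °C and purified by glutathione affinity chromatography.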

Row | Sequence | PBM E-score of 8-mer
1 | GCCAGGGC | -0.114 ± 0.0025
2 | CTCTGCCC | -0.112 ± 0.049
3 | AAGGACTA | -0.2289 ± 0.0013
4 | CTCAGCAG | -0.0259 ± 0.049
5 | CGTTCACA | 0.406 ± 0.012
6 | CCGAACAA | -0.122 ± 0.0046
7 | AAGGTTGA | -0.15 ± 0.024
8 | CACCAGGA | 0.182 ± 0.057
9 | AATCTAGT | -0.0691 ± 0.096
10 | AGGGGGAA | -0.14 ± 0.053
11 | ACTTCTTC | 0.0862 ± 0.021
12 | TCAGAAAA | -0.0376 ± 0.023
13 | AAGGTCAC | 0.165 ± 0.055
14 | CCTGCTGA | -0.126 ± 0.051
15 | CCCCTCTA | -0.143 ± 0.088
16 | AACTACAG | 0.0297 ± 0.049
17 | GAGCAAGC | -0.0839 ± 0.043
18 | CGTATTAC | -0.104 ± 0.011
19 | GACCCTAA | -0.198 ± 0.066
20 | GAGTTTAA | 0.0862 ± 0.037
21 | CGCTTGAC | -0.0239 ± 0.002
22 | CTCTGAAC | -0.238 ± 0.011
23 | CGGATGAC | -0.104 ± 0.018
24 | ATTCAGGG | -0.0909 ± 0.06
25 | CGCATTGA | 0.0757 ± 0.006

Row | Sequence | PBM E-score of 8-mer
26 | GGTGAAGA | 0.176 ± 0.066
27 | ACTAGCGG | -0.00732 ± 0.0077
28 | ATCGGACG | -0.156 ± 0.042
29 | CAAGGAAA | -0.179 ± 0.088
30 | TAGAGTCA | -0.246 ± 0.062
31 | ATGCTCCC | 0.0205 ± 0.032
32 | GTTTTCCA | -0.278 ± 0.036
33 | TATGTTAA | 0.0273 ± 0.076
34 | GGCCCTGA | -0.1469 ± 0.0011
35 | CGCGACTA | 0.233 ± 0.079
36 | GACGAGAC | 0.0185 ± 0.0037
37 | CGCTCTAA | -0.00311 ± 0.024
38 | AAAAGACT | -0.205 ± 0.034
39 | AATGTCAT | -0.164 ± 0.033
40 | ATACAGCA | -0.0736 ± 0.0022
41 | TACTTGGA | -0.254 ± 0.021
42 | CAGCCGGG | -0.166 ± 0.017
43 | GTGACGGA | 0.272 ± 0.036
44 | CGCAGGAC | -0.117 ± 0.0056
45 | CATATATG | 0.0458 ± 0.1
46 | TAGGCTGA | 0.144 ± 0.026
47 | TAGGGCCA | -0.155 ± 0.032
48 | AAAAGTTG | 0.147 ± 0.072
49 | ACCGTCAG | 0.0687 ± 0.014
50 | CAAACTCA | 0.0123 ± 0.00047

Row | Sequence | PBM E-score of 8-mer
51 | CGCCAATC | 0.151 ± 0.012
52 | CCCACTCG | 0.0373 ± 0.049
53 | ATTAGTTC | -0.177 ± 0.021
54 | ACCTTTCC | -0.121 ± 0.039
55 | CGAGGGGC | -0.073 ± 0.057
56 | ACCTTTTG | 0.236 ± 0.0028
57 | CTCCAGTC | -0.149 ± 0.012
58 | AGTGAGGG | -0.0175 ± 0.1
59 | CGGAAACG | 0.0389 ± 0.027
60 | ACGGCATA | -0.14 ± 0.027
61 | ATCCACTC | -0.224 ± 0.0054
62 | TCGAGCCA | -0.0622 ± 0.038
63 | AACAGTTG | 0.15 ± 0.02
64 | ATTAGCGC | 0.331 ± 0.024
65 | ACCCGCCT | 0.0715 ± 0.059
66 | AAGGACTC | -0.0491 ± 0.069
67 | AAACGTAG | -0.076 ± 0.04
68 | GCAATTAA | 0.0317 ± 0.082
69 | AAGGAGAG | -0.168 ± 0.053
70 | CAAACATA | -0.176 ± 0.036
71 | ATGTTCGG | -0.0272 ± 0.05
72 | ACGTGATC | 0.0646 ± 0.027
73 | CTATACTA | -0.188 ± 0.041
74 | AGACCAAA | 0.0858 ± 0.083
75 | CTTCGTAC | 0.0547 ± 0.098

Row | Sequence | PBM E-score of 8-mer
76 | ACCTAACT | 0.1322 ± 0.00088
77 | GATGTGGA | -0.112 ± 0.027
78 | GAATCCGA | -0.155 ± 0.027
79 | AGGTGAAC | 0.174 ± 0.0058
80 | CTACAAAC | -0.00661 ± 0.026
81 | GACCCCCA | -0.137 ± 0.043
82 | CCTCAACG | 0.0167 ± 0.051
83 | ATCATTCC | -0.134 ± 0.0078
84 | AAGCACAA | -0.166 ± 0.022
85 | CAGCATTA | -0.0723 ± 0.024
86 | CTAGCCAG | -0.185 ± 0.027
87 | AATCTCGC | 0.341 ± 0.015
88 | AACTTTTG | -0.0457 ± 0.051
89 | GGCTATAC | -0.163 ± 0.047
90 | AAAGCTAA | -0.116 ± 0.075
91 | GGACCTGA | -0.229 ± 0.046
92 | ATGCAGGG | -0.172 ± 0.01
93 | AGGTCCGC | 0.0766 ± 0.032
94 | CGATCGCA | 0.226 ± 0.029
95 | CGCTGGGC | -0.127 ± 0.1
96 | ACAAATAA | -0.049 ± 0.059
97 | CCACTCGC | 0.13 ± 0.0051
98 | CAGTCGGG | -0.0595 ± 0.012
99 | TACGCACA | -0.0799 ± 0.0095
100 | ATCCGTTA | -0.153 ± 0.087

Row | Sequence | PBM E-score of 8-mer
101 | AGTAATCA | -0.0163 ± 0.02
102 | AGGATGCA | -0.304 ± 0.02
103 | ACGTCCTA | -0.1436 ± 0.00023
104 | GAACGCAC | -0.0225 ± 0.023
105 | CAAAGACA | -0.0313 ± 0.013
106 | TATTCGGA | -0.32 ± 0.033
107 | CGACCGAC | 0.0275 ± 0.11
108 | TGGGCGAA | -0.161 ± 0.15
109 | GAACCGGA | -0.188 ± 0.048
110 | ATATCCGG | -0.353 ± 0.02
111 | CCTGGTTA | -0.0818 ± 0.026
112 | ACAAATTG | 0.134 ± 0.051
113 | TCTCAGCA | 0.00945 ± 0.035
114 | GTACGCGA | 0.0245 ± 0.079
115 | GCTATCAC | 0.29 ± 0.0075
116 | TGGCCACA | 0.0314 ± 0.04
117 | AGGGCGAT | 0.0357 ± 0.024
118 | CCATATCC | -0.195 ± 0.019
119 | GCCTTCGC | 0.279 ± 0.023
120 | CGTGCGAA | 0.448 ± 0.0091
121 | CAAGGCAA | 0.08 ± 0.018
122 | GGTACGTA | -0.147 ± 0.02
123 | ACCCAAAA | -0.1 ± 0.044
124 | ACCCGGCG | -0.0053 ± 0.13
125 | TATATACA | 0.00231 ± 0.047

Row | Sequence | PBM E-score of 8-mer
126 | AGCAGACT | -0.0586 ± 0.019
127 | CTATTTCC | -0.0822 ± 0.011
128 | CAGACTGA | -0.257 ± 0.0036
129 | ACATACGT | -0.00247 ± 0.033
130 | CACACCCC | 0.416 ± 0.013
131 | AGGGGGTG | 0.316 ± 0.027
132 | ATAGGTCA | -0.2415 ± 0.00031
133 | GAATTTAC | -0.203 ± 0.14
134 | ACAATGAC | 0.00371 ± 0.081
135 | CGCCTGAA | -0.134 ± 0.018
136 | ACAGGCTG | -0.0791 ± 0.025
137 | GACAAGGC | 0.101 ± 0.025
138 | ACGGGAAA | -0.0104 ± 0.041
139 | AATAACTG | 0.0739 ± 0.043
140 | GCTCGAGC | -0.197 ± 0.011
141 | AAGGTAAA | 0.102 ± 0.11
142 | ACCATTAT | -0.104 ± 0.0073
143 | CGCGTCGC | 0.24 ± 0.019
144 | TGACATAA | 0.0301 ± 0.0037
145 | AACAATCT | 0.0378 ± 0.0048
146 | TATTAACA | 0.199 ± 0.085
147 | AGAAGTGG | 0.134 ± 0.0029
148 | AATGCGAG | 0.0459 ± 0.016
149 | GCACCTAA | 0.373 ± 0.016
150 | AGTCGGTG | 0.0028 ± 0.0072

Row | Sequence | PBM E-score of 8-mer
151 | CACGATGG | -0.0662 ± 0.041
152 | ACGCGAAT | 0.123 ± 0.046
153 | GGACTAGA | -0.19 ± 0.028
154 | AGATGACC | -0.231 ± 0.026
155 | ATGAAGGC | -0.0339 ± 0.051
156 | CTTAACCA | -0.141 ± 0.056
157 | ACATGTAT | 0.00304 ± 0.018
158 | CGCAAGCA | 0.0884 ± 0.027
159 | CGCCCTCA | 0.141 ± 0.01
160 | TAAACGAA | -0.14 ± 0.03
161 | ACCGCAGG | -0.0193 ± 0.015
162 | AACTTCTT | -0.0804 ± 0.0058
163 | AACATAGA | -0.199 ± 0.038
164 | CATGTGAC | 0.2823 ± 0.0013
165 | GGACCCGA | 0.161 ± 0.068
166 | GTGACAAA | 0.428 ± 0.029
167 | TCGTGAAA | 0.279 ± 0.018
168 | TAAATACA | -0.0943 ± 0.0012
169 | AACTCTCG | -0.128 ± 0.018
170 | TGTGCTAA | 0.346 ± 0.02
171 | GGACTTTA | -0.193 ± 0.0087
172 | AACCTTAG | -0.0923 ± 0.0088
